Toxicity without saporin data for one molecule are collected here from article PMC9845330 (Communications Biology, 2023).

The source holds more than one record for some entries. This list holds those alone. An entry can have further records. Results that share an entry seem to repeat one measurement (runs, samples, wells or individuals). Brackets tell where a record comes from. Letters count within one entry. Non-standard residues stand in square brackets, D forms with d. Residues, ends and D or L forms follow the SMILES beside them. *: point of attachment. X1 = O=C(CCCC[C@@H]1SC[C@@H]2NC(=O)N[C@@H]21)NCCCOCCOCCOCCCN*; PEG12 = NCCOCCOCCOCCOCCOCCOCCOCCOCCOCCOCCOCCOCCC(=O)O

This series deals with H1299 cells. As to the kind of experiment: In vitro saporin delivery, cell viability (CellTiter-GLO). It is filed as cell-based, human. Conditions: H1299, up to 200 nM, 6 h exposure, viability at 72 h. As for the experimental part: Fig. 4 MGS4_V8 effectively delivers active saporin to cancer cells. a H1299 cells were incubated biotinylated MGS4_V8 conjugated to streptavidin-saporin for 1 h, then washed, fixed and counterstained with an anti-saporin antibody (red), WGA-AF488 (green) and DAPI (blue). MGS4_V8 successfully delivers saporin into cancer cells while the control peptide, MGS4_V6 cannot. b MGS4_V8 and MGS4_V9 saporin-conjugates were serially diluted and incubated with H1299 and H2009 cells for 6 h after which, the MGS4-saporin conjugates were removed and complete growth media returned to the wells. At 72 h, viability was measured. IC50 values are provided in the inset. Individual measurements are shown. The mean is shown as an “X”. […]
The ability of MGS4_V8-saporin conjugate to induce cell death was determined.
Biotinylated peptide was conjugated to streptavidin-saporin (Advanced Targeting Systems Bio, San Diego, CA) in a 1:1 molar ratio. […] After 72 h, cell viability was measured using CellTiter-GLO® (Promega, Madison, WI). […] IC50s were calculated using GraphPad Prism® using log(agonist) vs. response–Variable slope (four parameters). […]
For all EC50 determinations, each peptide variant was tested on the indicated cell line with a minimum of 3 biological replicates and analyzed individually by flow cytometry. […] For the truncation experiments, EC50 were determined using one-site-specific binding. […]
For orientation: ATP-based viability assays read luminescence as a measure of living cells.

As for `CC(=O)N[C@@H](Cc1ccccc1)C(=O)N[C@@H](Cc1c[nH]cn1)C(=O)N[C@@H](C)C(=O)N[C@H](C(=O)N1CCC[C@H]1C(=O)N[C@@H](CCC(N)=O)C(=O)N[C@@H](CO)C(=O)N[C@@H](Cc1ccccc1)C(=O)N[C@@H](Cc1ccc(O)cc1)C(=O)N[C@H](C(=O)NCCOCCOCCOCCOCCOCCOCCOCCOCCOCCOCCOCCOCCC(=O)N[C@@H](CCC(=O)NCCCOCCOCCOCCCNC(=O)CCCC[C@@H]1SC[C@@H]2NC(=O)N[C@@H]21)C(N)=O)[C@@H](C)O)C(C)C` [MGS4_V8] (Ac-FHAVPQSFYT[PEG12]E(X1)-NH2), the toxicity without saporin entry is “showed any toxicity [passage A] and No reduction [passage B]”.
